According to publication PMC5738409:
No constants are given. Whether binding was seen depends on the method and setting. For part of these data: Binding seen in cells or lysates may run through a third protein. Some binding calls cover weakened binding; strength is not graded here. For part of these data: Tags and fused reporters may be left off the sequences shown.

Columns and labels:
GFP-Rad1 (Drosophila) = target: T1, GFP-Rad1 (Drosophila) (UniProt Q9VQD4); assay: co-IP; head extracts of irradiated (40 Gy) flies (Gmr-Gal4 UAS-CycG::UAS-GFP-Rad1 UAS-Flag-Rad9); precipitation with anti-Flag and Protein A Sepharose; blots with anti-CycG, anti-Flag, anti-GFP
T1 sequence: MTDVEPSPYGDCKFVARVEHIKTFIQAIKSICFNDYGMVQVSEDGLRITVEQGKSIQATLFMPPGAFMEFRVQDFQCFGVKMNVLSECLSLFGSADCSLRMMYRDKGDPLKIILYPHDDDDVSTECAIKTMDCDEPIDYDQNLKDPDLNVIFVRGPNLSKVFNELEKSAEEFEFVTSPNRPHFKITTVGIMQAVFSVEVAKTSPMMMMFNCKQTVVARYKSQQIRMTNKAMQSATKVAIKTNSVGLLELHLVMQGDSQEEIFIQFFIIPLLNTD

Flag-Rad9 (Drosophila) = target: T2, Flag-Rad9 (Drosophila) (UniProt O96533); assay: as above
T2 sequence: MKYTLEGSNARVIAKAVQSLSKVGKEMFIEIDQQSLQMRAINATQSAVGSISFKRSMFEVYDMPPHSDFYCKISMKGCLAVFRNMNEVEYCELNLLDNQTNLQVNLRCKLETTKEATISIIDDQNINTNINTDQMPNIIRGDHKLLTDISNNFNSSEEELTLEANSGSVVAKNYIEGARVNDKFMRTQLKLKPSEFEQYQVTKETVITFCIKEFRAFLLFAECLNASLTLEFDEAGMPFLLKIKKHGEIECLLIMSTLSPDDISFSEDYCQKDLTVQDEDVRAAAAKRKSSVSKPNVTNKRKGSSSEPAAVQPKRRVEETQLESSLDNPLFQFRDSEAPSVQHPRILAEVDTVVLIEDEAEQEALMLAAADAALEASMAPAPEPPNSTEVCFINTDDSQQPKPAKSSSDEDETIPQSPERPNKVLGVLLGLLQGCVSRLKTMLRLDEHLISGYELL

p53_3xHA (Drosophila) [1] = target: T3, p53_3xHA (Drosophila) (UniProt Q9N6D8); assay: co-IP; head extracts of flies (Gmr-Gal4 UAS-CycG::UAS-p53_3xHA) 2 hrs after irradiation with 40 Gy; anti-HA and Protein A Sepharose, 2 hrs at 4 °C; blot with anti-CycG; no antiserum as mock control
T3 sequence: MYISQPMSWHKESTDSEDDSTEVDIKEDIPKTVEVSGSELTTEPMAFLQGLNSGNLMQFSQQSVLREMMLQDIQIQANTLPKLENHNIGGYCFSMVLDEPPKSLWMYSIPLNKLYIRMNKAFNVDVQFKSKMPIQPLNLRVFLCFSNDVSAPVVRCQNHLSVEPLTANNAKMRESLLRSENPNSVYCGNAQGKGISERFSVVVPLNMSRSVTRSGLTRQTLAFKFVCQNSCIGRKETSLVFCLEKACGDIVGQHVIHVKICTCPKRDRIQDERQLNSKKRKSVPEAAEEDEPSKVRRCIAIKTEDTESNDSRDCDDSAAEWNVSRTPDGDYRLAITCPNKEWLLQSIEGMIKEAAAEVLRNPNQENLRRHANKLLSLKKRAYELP

p53 (Drosophila) = target: T4, p53 (Drosophila) (UniProt Q9N6D8); assay: two-hybrid; yeast two-hybrid in EGY40 cells with pEG202 and pJG4-5 vectors; lacZ reporter, blue colonies; empty vectors as controls
T4 sequence: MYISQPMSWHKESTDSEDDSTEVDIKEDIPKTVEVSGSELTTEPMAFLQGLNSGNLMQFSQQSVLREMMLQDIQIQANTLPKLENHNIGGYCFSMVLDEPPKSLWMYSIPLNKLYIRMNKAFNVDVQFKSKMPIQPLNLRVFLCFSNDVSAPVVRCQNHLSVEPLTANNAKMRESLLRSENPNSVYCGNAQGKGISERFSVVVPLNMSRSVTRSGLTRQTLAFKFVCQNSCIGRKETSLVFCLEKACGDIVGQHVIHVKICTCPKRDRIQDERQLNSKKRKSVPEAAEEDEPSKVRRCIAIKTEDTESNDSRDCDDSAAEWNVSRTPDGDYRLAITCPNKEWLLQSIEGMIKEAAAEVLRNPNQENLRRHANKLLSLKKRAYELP

BRCA2 (Drosophila) = target: T5, BRCA2 (Drosophila) (UniProt Q9W157); assay: co-IP; irradiated flies; how BRCA2 was precipitated or detected is not told in the text shown
T5 sequence: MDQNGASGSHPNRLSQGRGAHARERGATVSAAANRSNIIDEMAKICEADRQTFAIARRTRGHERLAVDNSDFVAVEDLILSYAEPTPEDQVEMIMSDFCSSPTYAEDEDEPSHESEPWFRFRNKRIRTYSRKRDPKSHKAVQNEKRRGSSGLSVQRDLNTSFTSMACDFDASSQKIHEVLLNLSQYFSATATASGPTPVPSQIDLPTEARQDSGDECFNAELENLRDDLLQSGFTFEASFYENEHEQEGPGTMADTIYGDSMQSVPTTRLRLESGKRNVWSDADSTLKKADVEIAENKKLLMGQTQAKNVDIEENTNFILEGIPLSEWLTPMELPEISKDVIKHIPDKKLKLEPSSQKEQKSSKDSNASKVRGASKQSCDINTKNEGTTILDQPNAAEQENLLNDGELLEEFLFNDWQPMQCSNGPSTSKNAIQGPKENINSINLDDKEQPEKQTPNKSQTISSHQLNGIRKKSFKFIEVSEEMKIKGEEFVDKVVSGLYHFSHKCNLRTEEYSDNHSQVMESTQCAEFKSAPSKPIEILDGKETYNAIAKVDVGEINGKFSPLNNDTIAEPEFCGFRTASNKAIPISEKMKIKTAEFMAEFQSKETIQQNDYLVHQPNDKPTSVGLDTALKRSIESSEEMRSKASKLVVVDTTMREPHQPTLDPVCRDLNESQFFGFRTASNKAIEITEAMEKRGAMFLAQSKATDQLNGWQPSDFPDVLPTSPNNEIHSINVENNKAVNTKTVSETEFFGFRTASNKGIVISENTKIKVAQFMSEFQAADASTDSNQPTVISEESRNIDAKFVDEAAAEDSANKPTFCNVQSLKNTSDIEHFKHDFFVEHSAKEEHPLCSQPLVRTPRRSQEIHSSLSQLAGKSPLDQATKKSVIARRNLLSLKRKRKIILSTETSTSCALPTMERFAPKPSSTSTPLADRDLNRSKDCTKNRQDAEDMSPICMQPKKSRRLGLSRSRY

p53_3xHA (Drosophila) [2] = target: T3, p53_3xHA (Drosophila); assay: co-IP; head extracts of flies (Gmr-Gal4 UAS-CycG::UAS-p53_3xHA) without irradiation; anti-HA and Protein A Sepharose; blot with anti-CycG

binding (GFP-Rad1 (Drosophila)): no binding
binding (Flag-Rad9 (Drosophila)): no binding
binding (p53_3xHA (Drosophila) [1]): binds
binding (p53 (Drosophila)): binds
binding (BRCA2 (Drosophila)): no binding
B1: Cyclin G (protein, UniProt Q95TJ9 1-566)
chain: MSVPVRYSSAAAEYAAEVDCELESTLQQQQQLHLQQQYEQYQHYQYQREQDIAYYCQLQAARQQEQLMQQRTSMSSSVMPGLALPQDHQDHPAALLNGPHNNNIGLAMDAHSINAILVDDEQPSTSAQAAAAAAASAGGSAGAGSGSGLGGAIGGGKLANGINRNAEMPTDWMRIADEGRYGTPGAAGLEYQKYEQQQQLEDLAESEAGAVGGASNNNGESSSSLKKLEDQLHALTSDELYETLKEYDVLQDKFHTVLLLPKESRREVTAGGRDGSAYVLRCLKMWYELPSDVLFSAMSLVDRFLDRMAVKPKHMACMSVASFHLAIKQLDLKPIPAEDLVTISQCGCTAGDLERMAGVIANKLGVQMGHAPITSVSYLRIYYALFRNLAKEIGGDFFKFYQQLIKLEELENRLEILMCDVKTTVITPSTLALVLICLHLDFHIKESYTRGSPELKHVFEYILFLQQYMRIPDRVFTCGFSIVSGILSHYNGQNKAPYKQRLVWKLSSRTLRVLRPINRFSSDLPTIEEGIPNALDDGLRSRTESISSEEEEDWPTSPIIPIFEQC
binding (p53_3xHA (Drosophila) [2]): no binding (condition: flies not irradiated)
